# Data reported in PubChem BioAssay AID1347073 (National Center for Advancing Translational Sciences (NCATS), 2019).
# The campaign covered roughly 45,000 compounds. About 200 (0.44%) were called active. Not shown: some 7% with an inconclusive outcome. The call rests on the fitted dose curve; in most records, active means well fitted activation curve with a large enough effect; inconclusive means small, poorly fitted or top-dose-only effect; inactive means no such curve, though single readings can be large or run the other way. The list shows a part of the results.
# Test: qHTS of TDP-43 Inhibitors: NCGC Sytravon Library Screen; further: 0% is about no effect; nearly all actives have a fitted effect of over 55% in size
# Conditions: yeast TDP-43 toxicity rescue, BacTiter-Glo growth, 24 h; series mostly up to 46.1 µM; growth rescue (activation): at the top concentration
# How it was run: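 TDP-43-expressing yeast, pregrown in raffinose, seeded at OD600 0.02 in galactose medium with compound for 24 hr at 30 deg C. Growth read by BacTiter-Glo luminescence, so rescue of toxicity appears as activation.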
row,Compound,growth rescue (activation)
1,Cc1ccc(-n2cc(CNCCCN3CCCC3=O)c(-c3ccc(F)cc3)n2)cc1,inactive: 6.07%
2,Cc1cccc(N2CC(C(=O)Nc3ccc(S(=O)(=O)N4CCOCC4)cc3)CC2=O)c1C (stereo not drawn),inactive: -2.36%
3,COc1cc(C(=O)NCCNC(=O)c2ccc(C)nc2)cc(OC)c1OC,inactive: 18.4%
4,Cc1sc(NC(=O)c2ccccc2)c(C(c2ccc(Cl)cc2)N2CCN(CCO)CC2)c1C (stereo not drawn),inactive: 10.3%
5,Cc1c([N+](=O)[O-])cc(C(=O)NCc2ccc(F)cc2)cc1[N+](=O)[O-],inactive: 14.1%
6,O=C(CSc1ccc(F)cc1)NNC(=O)c1ccccc1Br,inactive: 10.4%
7,Cc1cc(C)c(NC(=O)C2CCCO2)c(C)c1NC(=O)C1CCCO1 (stereo not drawn),inactive: -1.3%
8,O=C(CCCc1ccccc1)NC1CC(=O)N(c2cccc(F)c2)C1 (stereo not drawn),inactive: 12.5%
9,CCOCCCn1c(=N)c(S(=O)(=O)c2ccc(C)cc2)cc2c(=O)n3cc(C)ccc3nc21,inactive: 2.73%
10,CCNC(=O)C1(C)CCN(C(=O)c2ccccc2OC(F)(F)F)C1 (stereo not drawn),inactive: 1.84%
11,Cc1csc2nc(COC(=O)c3ccc(Cl)c([N+](=O)[O-])c3)cc(=O)n12,inactive: 12.8%
12,CCOC(=O)c1cc2c(=O)n3ccccc3nc2n(C)c1=NC(=O)c1c(-c2c(F)cccc2Cl)noc1C,inactive: 32.2%
13,CC(=O)Nc1ccc(-c2csc(NC(C)c3ccccc3)n2)cc1 (stereo not drawn),inactive: 14.8%
14,COc1ccc(CNCc2cccc(Cl)c2)cc1,inactive: -10.2%
15,CN(C)S(=O)(=O)c1ccc(NC(=O)C2CCCN(C(=O)c3ccc(Cl)cc3)C2)cc1 (stereo not drawn),inactive: -1.02%
16,NC(=O)C1CCN(C(=O)C2(NC(=O)Nc3cccc(F)c3)CCCCC2)CC1,inactive: 6.62%
17,C/C(CC(=O)Nc1ccccc1-c1ccccc1)=N\NC(=O)COc1ccc(C)cc1Br,inactive: 19.7%
18,Cc1nn(C)cc1S(=O)(=O)N1CCCC(C(=O)O)C1 (stereo not drawn),inactive: 6.13%
19,CCc1nc2ccc(C(=O)NCCCN(C)C)cn2c1N(CC)CCOC,inactive: 2.38%
20,COCCCn1cnc2oc3nc4ccccc4nc3c2c1=O,inactive: 23.4%
21,COCCCNC(=O)c1cc2c(-c3cccc(OC)c3)nn(C)c2s1,inactive: 21.6%
22,O=C(CN1C(=O)NC2(CCCC2)C1=O)N1CCc2ccccc2C1,inactive: 0.557%
23,Cc1ccc(S(=O)(=O)N(C)C)cc1NC(=O)C(C)NC(C)c1cccs1 (stereo not drawn),inactive: -9.78%
24,O=C(CN1CCOCC1)N1CCc2ccccc2C(c2ccccc2)C1 (stereo not drawn),inactive: 15.2%
25,CCCN(CC(=O)Nc1cc(C)on1)S(=O)(=O)c1cccc(C(F)(F)F)c1,inactive: 14.7%
26,COc1cccc(/C=N/Nc2snc(SC)c2C#N)c1O,inactive: -9.71%
27,COc1ccc(-c2cc(C(=O)N3CCCCC3C)no2)cc1OC (stereo not drawn),inactive: 21.2%
28,O=C(O)c1ccc(CN2C[C@@H](CO)O[C@@H](n3cnc4c(NCc5ccc(F)cc5)ncnc43)C2)cc1,inactive: 9.42%
